Reference: patent US20250304706A1 (Astellas, published 2025)
Changes are numbered by the printed parent chain.

B1: BTE-0123 (bispecific antibody)
chain 1: QVQLVESGGGVVQPGGSLRLSCAASGFTFSSYGMHWVRQAPGKGLEWVAVIWYDGRNKYYADSVKGRFTISRDNSKNTLYLQMNSLRAEDTAVYYCTRDHSGSGSYYIDYWGQGTLVTVSSASTKGPSVFPLAPSSKSTSGGTAALGCLVKDYFPEPVTVSWNSGALTSGVHTFPAVLQSSGLYSLSSVVTVPSSSLGTQTYICNVNHKPSNTKVDKKVEPKSCDKTHTCPPCPAPEAAGGPSVFLFPPKPKDTLMISRTPEVTCVVVDVSHEDPEVKFNWYVDGVEVHNAKTKPREEQYNSTYRVVSVLTVLHQDWLNGKEYKCKVSNKALAAPIEKTISKAKGQPREPQVYTLPPSRDELTKNQVSLSCAVKGFYPSDIAVEWESNGQPENNYKTTPPVLDSDGSFFLVSKLTVDKSRWQQGNVFSCSVMHEALHNHYTQKSLSLSPGK
chain 2: EIAMTQSPATLSVSPGERATLSCRASQSVSSNLAWYQQKPGQAPRLLIYGASTRATGLPARFSGSGSGTEFTLTISSLQSEDFAVYYCQQYNNFWTFGQGTKVEIKRTVAAPSVFIFPPSDEQLKSGTASVVCLLNNFYPREAKVQWKVDNALQSGNSQESVTEQDSKDSTYSLSSTLTLSKADYEKHKVYACEVTHQGLSSPVTKSFNRGEC
chain 3: EVQLVESGGGLIQPGGSLRLSCAASGFTFNTYAMNWVRQAPGKGLEWVARIRSKYNNYATYYADSVKDRFTISRDDSKSTLYLQMNNLRAEDTAVYYCVRHGNFGNDYVSWFAYWGQGTLVTVSSGKPGSGKPGSGKPGSGKPGSQAVVTQEPSLTVSPGGTVTLTCRSSTGAVTTSNYANWVQQKPGQAPRGLIGGTNKRAPGTPARFSGSLLGDKAALTLSGAQPEDEAEYYCALWYSNHWVFGGGTKVTVL[human IgG1 Fc with C220S L234A L235A P329A T366W (EU numbers) cut from this listing]
B2: BTE-0125 (bispecific antibody)
chain 1: B1 chain 1
chain 2: B1 chain 2
chain 3: B1 chain 3 with N30S, T31D, Y32H, D107S, H242L
B3: BTE-0126 (bispecific antibody)
chain 1: B1 chain 1
chain 2: B1 chain 2
chain 3: B1 chain 3 with N35S, D107S, H242L
B4: BTE-0130 (bispecific antibody)
chain 1: B1 chain 1
chain 2: B1 chain 2
chain 3: B1 chain 3 with Y55A, D107S, H242L
B5: BTE-0131 (bispecific antibody)
chain 1: B1 chain 1
chain 2: B1 chain 2
chain 3: B1 chain 3 with Y61E, D107S, H242L
B6: BTE-0132 (bispecific antibody)
chain 1: B1 chain 1
chain 2: B1 chain 2
chain 3: B1 chain 3 with Y61S, D107S, H242L
B7: BTE-0133 (bispecific antibody)
chain 1: B1 chain 1
chain 2: B1 chain 2
chain 3: B1 chain 3 with D107E, H242L
B8: BTE-0070 (bispecific antibody)
chain 1: B1 chain 1
chain 2: B1 chain 2
chain 3: B1 chain 3 with N30S, T31D, Y32H, N106D, D107S, H242L
B9: BTE-0075 (bispecific antibody)
chain 1: B1 chain 1
chain 2: B1 chain 2
chain 3: B1 chain 3 with Y55A, N106D, D107S, H242L
B10: BTE-0076 (bispecific antibody)
chain 1: B1 chain 1
chain 2: B1 chain 2
chain 3: B1 chain 3 with Y61E, N106D, D107S, H242L
B11: BTE-0077 (bispecific antibody)
chain 1: B1 chain 1
chain 2: B1 chain 2
chain 3: B1 chain 3 with Y61S, N106D, D107S, H242L
B12: BTE-0078 (bispecific antibody)
chain 1: B1 chain 1
chain 2: B1 chain 2
chain 3: B1 chain 3 with N106D, D107E, H242L
B13: BTE-0081 (bispecific antibody)
chain 1: B1 chain 1
chain 2: B1 chain 2
chain 3: B1 chain 3 with N30S, T31D, Y32H, D107S, T205V, H242L
B14: BTE-0082 (bispecific antibody)
chain 1: B1 chain 1
chain 2: B1 chain 2
chain 3: B1 chain 3 with N35S, D107S, T205V, H242L
B15: BTE-0084 (bispecific antibody)
chain 1: B1 chain 1
chain 2: B1 chain 2
chain 3: B1 chain 3 with N35A, D107S, T205V, H242L
B16: BTE-0086 (bispecific antibody)
chain 1: B1 chain 1
chain 2: B1 chain 2
chain 3: B1 chain 3 with Y55A, D107S, T205V, H242L
B17: BTE-0087 (bispecific antibody)
chain 1: B1 chain 1
chain 2: B1 chain 2
chain 3: B1 chain 3 with Y61E, D107S, T205V, H242L
B18: BTE-0088 (bispecific antibody)
chain 1: B1 chain 1
chain 2: B1 chain 2
chain 3: B1 chain 3 with Y61S, D107S, T205V, H242L
B19: BTE-0089 (bispecific antibody)
chain 1: B1 chain 1
chain 2: B1 chain 2
chain 3: B1 chain 3 with D107E, T205V, H242L
B20: BTE-0034 (bispecific antibody, human IgG1, kappa, L234A L235A, N297G)
heavy: B1 chain 1 with N301G, A333P
light: B1 chain 2
scFv-Fc: EVQLVESGGGLIQPGGSLRLSCAASGFTFNTYAMNWVRQAPGKGLEWVARIRSKYNNYATYYADSVKDRFTISRDDSKSTLYLQMNNLRAEDTAVYYCVRHGNFGNDYVSWFAYWGQGTLVTVSSGKPGSGKPGSGKPGSGKPGSQAVVTQEPSLTVSPGGTVTLTCRSSTGAVTTSNYANWVQQKPGQAPRGLIGGTNKRAPGTPARFSGSLLGDKAALTLSGAQPEDEAEYYCALWYSNLWVFGGGTKVTVL[human IgG1 Fc with C220S L234A L235A N297G T366W (EU numbers) cut from this listing]
notes: variant of BTE-0001
B21: BTE-0048 (bispecific antibody, human IgG1, kappa, L234A L235A, N297G)
heavy: B1 chain 1 with N301G, A333P
light: B1 chain 2
scFv-Fc: B20 scFv-Fc with D107S, A113D
notes: variant of BTE-0001
B22: BTE-0010 (bispecific antibody)
chain 1: B1 chain 1 with N301G, A333P
chain 2: B1 chain 2
chain 3: B20 scFv-Fc with N35D, D107S
B23: BTE-0011 (bispecific antibody)
chain 1: B1 chain 1 with N301G, A333P
chain 2: B1 chain 2
chain 3: B20 scFv-Fc with N35A, D107S
B24: BTE-0012 (bispecific antibody)
chain 1: B1 chain 1 with N301G, A333P
chain 2: B1 chain 2
chain 3: B20 scFv-Fc with N35G, D107S
B25: BTE-0015 (bispecific antibody)
chain 1: B1 chain 1 with N301G, A333P
chain 2: B1 chain 2
chain 3: B20 scFv-Fc with Y55A, D107S
B26: BTE-0016 (bispecific antibody)
chain 1: B1 chain 1 with N301G, A333P
chain 2: B1 chain 2
chain 3: B20 scFv-Fc with Y55F, D107S
B27: BTE-0017 (bispecific antibody)
chain 1: B1 chain 1 with N301G, A333P
chain 2: B1 chain 2
chain 3: B20 scFv-Fc with Y55A, N57S, D107S
B28: BTE-0018 (bispecific antibody)
chain 1: B1 chain 1 with N301G, A333P
chain 2: B1 chain 2
chain 3: B20 scFv-Fc with Y61A, D107S
B29: BTE-0019 (bispecific antibody)
chain 1: B1 chain 1 with N301G, A333P
chain 2: B1 chain 2
chain 3: B20 scFv-Fc with Y61E, D107S
B30: BTE-0020 (bispecific antibody)
chain 1: B1 chain 1 with N301G, A333P
chain 2: B1 chain 2
chain 3: B20 scFv-Fc with Y61D, D107S
B31: BTE-0021 (bispecific antibody)
chain 1: B1 chain 1 with N301G, A333P
chain 2: B1 chain 2
chain 3: B20 scFv-Fc with Y61I, D107S

Target: T1, CD3εδ complex protein (human; alpaca, UniProt P07766 23-126; P04234 22-105)
Chain of UniProt P07766 (P07766 23-126 limits assumed, stated change not applied, form in doubt, chain 1 of 2): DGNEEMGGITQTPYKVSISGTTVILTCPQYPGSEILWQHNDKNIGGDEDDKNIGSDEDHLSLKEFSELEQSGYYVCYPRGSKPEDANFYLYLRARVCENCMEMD
Chain of UniProt P07766 (P04234 22-105 limits assumed, stated change not applied, form in doubt, chain 2 of 2, further chain): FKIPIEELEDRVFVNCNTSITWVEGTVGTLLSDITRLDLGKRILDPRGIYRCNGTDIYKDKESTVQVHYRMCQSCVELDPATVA
T1 construct: they are not part of the secreted protein; also called human CD3; CD386 complex protein
Assay: ELISA, CD3 complex immobilized
Summary of the method: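 Bispecific anti-TSPAN8/anti-CD3 antibodies bound to immobilized CD3εδ complex protein in ELISA, detected with HRP anti-human IgG Fc and TMB absorbance. EC50 from a four-parameter variable-slope fit, top fixed at plate maximum and bottom at blank; reference antibody averaged across plates.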

Q: How did the EC50 turn out when B1 was run?
A: The EC50 was 0.192 µg/mL.

Q: How did the EC50 turn out when B2 was run?
A: Its EC50 is 0.163 µg/mL.

Q: With B3 as the binder, how does the EC50 read?
A: The EC50 was 0.33 µg/mL.

Q: B4 was tested. Which EC50 did it give?
A: The EC50 was 0.0109 µg/mL.

Q: B5 was tested. Which EC50 did it give?
A: Its EC50 is 0.269 µg/mL.

Q: How did the EC50 turn out when B6 was run?
A: Its EC50 is 0.0315 µg/mL.

Q: B7 was tested. Which EC50 did it give?
A: The EC50 was 0.0693 µg/mL.

Q: How did the EC50 turn out when B8 was run?
A: The EC50 was 0.632 µg/mL.

Q: Which EC50 does the source give for B9 here?
A: Its EC50 is 0.113 µg/mL.

Q: Which EC50 does the source give for B10 here?
A: The EC50 was 0.438 µg/mL.

Q: With B11 as the binder, how does the EC50 read?
A: The EC50 was 0.274 µg/mL.

Q: With B12 as the binder, how does the EC50 read?
A: Its EC50 is 0.634 µg/mL.

Q: With B13 as the binder, how does the EC50 read?
A: Its EC50 is 0.152 µg/mL.

Q: How did the EC50 turn out when B14 was run?
A: The EC50 was 0.322 µg/mL.

Q: For B15, which EC50 is on record?
A: The EC50 was 0.036 µg/mL.

Q: B16 was tested. Which EC50 did it give?
A: Its EC50 is 0.0379 µg/mL.

Q: For B17, which EC50 is on record?
A: The EC50 was 1.02 µg/mL.

Q: B18 was tested. Which EC50 did it give?
A: Its EC50 is 0.0556 µg/mL.

Q: How did the EC50 turn out when B19 was run?
A: Its EC50 is 0.0975 µg/mL.

Target: T1, CD3εδ complex protein (printed 'CD388 …)
Assay: ELISA, CD3 complex immobilized
Remark: another data set of the same source
Experimental: Binding activities of the anti-TSPAN8/anti-CD3 bispecific antibodies BTE-0001 to BTE-0067 to CD3 were evaluated by the ELISA. ELISA was performed according to a conventional method. The […] complex protein obtained in Example 1-3 was immobilized on a plate. BTE-0001 to BTE-0067 were used as the test antibodies. As a secondary antibody, Goat anti-Human IgG Fc, Multi-Species SP ads-HRP (2014-05, available from SouthernBiotech) was used. TMB+Substrate-Chromogen (S1599, available from Dako) was used as the detection reagent. Infinite M200pro (available from Tecan) was used to measure the absorbance. The EC50 values were calculated using variable slope model (four parameters) in GraphPad Prism with the maximum value in the same plate fixed at the top and the minimum value in the blank in the same plate fixed at the bottom. Since BTE-0001 was always measured in each plate as a control, only the EC50 value of BTE-0001 was expressed as the average value of a plurality of plates.

Q: Which EC50 does the source give for B20 here?
A: The EC50 was 0.0471 µg/mL.

Q: How did the EC50 turn out when B21 was run?
A: Its EC50 is 0.142 µg/mL.

Q: Which EC50 does the source give for B22 here?
A: The EC50 was 2.04 µg/mL.

Q: Which EC50 does the source give for B23 here?
A: The EC50 was 0.378 µg/mL.

Q: How did the EC50 turn out when B24 was run?
A: Its EC50 is 0.993 µg/mL.

Q: With B25 as the binder, how does the EC50 read?
A: The EC50 was 0.0176 µg/mL.

Q: How did the EC50 turn out when B26 was run?
A: Its EC50 is 0.0042 µg/mL.

Q: B27 was tested. Which EC50 did it give?
A: The EC50 was 0.03 µg/mL.

Q: How did the EC50 turn out when B28 was run?
A: Its EC50 is 0.0613 µg/mL.

Q: B29 was tested. Which EC50 did it give?
A: The EC50 was 0.577 µg/mL.

Q: How did the EC50 turn out when B30 was run?
A: The EC50 was 1.26 µg/mL.

Q: For B31, which EC50 is on record?
A: The EC50 was 0.0387 µg/mL.
